# The supplement of paper PMC4166925
# ± gives the standard deviation of the averaged measurements. Whole data set: some 33,000 sequences, median “E-score (dimensionless, -0.5 to 0.5)” near -0.049, cut for the highest 2% near 0.37. Some of the results follow.
# Tested on: T1, PmTbr T-box DNA-binding domain (GST fusion)
# T1 sequence: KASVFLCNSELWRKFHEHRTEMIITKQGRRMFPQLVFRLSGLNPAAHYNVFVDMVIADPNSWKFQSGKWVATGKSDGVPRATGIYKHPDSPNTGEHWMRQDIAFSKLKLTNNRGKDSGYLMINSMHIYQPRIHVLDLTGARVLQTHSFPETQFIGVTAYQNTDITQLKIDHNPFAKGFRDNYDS
# Test: PBM E-score of 8-mer (E-score (dimensionless, -0.5 to 0.5)); Tbr is Tbrain of the sea star Patiria miniata (Pm) or the sea urchin Strongylocentrotus purpuratus (Sp); higher = stronger binding preference; most listed sequences are background and not binding sites
# Conditions: the construct has about 5 more residues each side
# How it was run: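 Expression of GST-fused Tbr T-box DNA-binding domains, each holding the full T-box plus roughly five flanking residues, was carried out in BL21 E. coli at 20 °C, with purification by glutathione affinity chromatography. Universal Agilent arrays made double-stranded by primer extension were incubated with the protein at 200 nM in PBS (pH 7.5), then scanned and quantified. All ungapped 8-mers were scored from probe intensities, and each received an enrichment E-score from the Universal PBM Analysis Suite, averaged over duplicate arrays.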
row,Sequence,PBM E-score of 8-mer
1,AGCTAGTG,0.108 ± 0.0035
2,CCTCGTGA,0.128 ± 0.036
3,CCCTGTAC,-0.039 ± 0.084
4,AACCCAAT,-0.294 ± 0.0085
5,CAACCCAC,0.0796 ± 0.085
6,AACACTTC,0.442 ± 0.014
7,ATCGGCAC,0.156 ± 0.07
8,CTATGGGC,-0.248 ± 0.1
9,ACCACCCT,0.0583 ± 0.021
10,GCCCGGGA,-0.186 ± 0.1
11,CCCCGCGC,0.0407 ± 0.011
12,CACGTATG,0.164 ± 0.0059
13,CGGAATCA,-0.101 ± 0.043
14,AAATGGAG,0.0758 ± 0.079
15,GGCCTTCA,-0.15 ± 0.021
16,ACACGGGA,-0.00943 ± 0.0048
17,AACCGACA,0.153 ± 0.026
18,CAATTTGG,-0.0299 ± 0.041
19,CGTACCGC,0.109 ± 0.019
20,CTCCCACA,0.0954 ± 0.064
21,GCTTGTCA,0.0851 ± 0.047
22,AGCCTACC,-0.186 ± 0.037
23,AATATACG,-0.0764 ± 0.031
24,CGTGTCGA,0.288 ± 0.052
25,GCAATAAA,-0.111 ± 0.045

row,Sequence,PBM E-score of 8-mer
1,CATAACTC,-0.229 ± 0.00039
2,CAGGCAAC,-0.0628 ± 0.029
3,AAGTCTAC,0.00041 ± 0.015
4,CCGCACTC,0.09578 ± 0.00085
5,ATAAATTC,0.0357 ± 0.039
6,AACAAGGT,0.229 ± 0.016
7,TACTCCCA,-0.217 ± 0.067
8,CAGGCTAC,-0.199 ± 0.01
9,CGCATATC,-0.0673 ± 0.056
10,CTGGTCAC,0.198 ± 0.017
11,GCCCCAGA,-0.14 ± 0.029
12,CCACACCC,0.395 ± 0.028
13,CATGATCG,-0.0386 ± 0.00089
14,CAAAGCCC,-0.278 ± 0.088
15,AGGAGTTG,0.225 ± 0.044
16,ACGTGGAC,-0.0287 ± 0.1
17,ACCGGACA,-0.0503 ± 0.06
18,CGGCTAGA,-0.042 ± 0.019
19,AAGCATAT,-0.067 ± 0.056
20,AACCTTCA,-0.149 ± 0.083
21,AAGATACT,-0.232 ± 0.12
22,AATGTGGC,0.163 ± 0.0047
23,GCGAGCGA,0.137 ± 0.1
24,ACCCTCAG,0.0121 ± 0.00031
25,ATCGCATG,0.0742 ± 0.0027

row,Sequence,PBM E-score of 8-mer
1,ATAATGTG,0.262 ± 0.032
2,CGTATAAG,-0.073 ± 0.011
3,ATCTGACG,0.0815 ± 0.024
4,AATAGATT,-0.116 ± 0.051
5,CGATTAAG,0.0336 ± 0.064
6,CACCCTAG,0.249 ± 0.037
7,ACGACAGC,0.122 ± 0.024
8,CTTAGTAC,-0.239 ± 0.06
9,AGAGGTGA,0.352 ± 0.015
10,ATCCAGAC,-0.137 ± 0.052
11,GCACCAAA,0.143 ± 0.059
12,GAAAACAC,0.229 ± 0.033
13,AGTTAATC,-0.117 ± 0.071
14,AGTCAACG,-0.0274 ± 0.096
15,ATGGAACG,-0.179 ± 0.018
16,AGTTGCGG,0.0771 ± 0.12
17,ACAGTTAA,0.158 ± 0.058
18,ACGCCCTA,0.155 ± 0.023
19,AGCCGTGA,0.27 ± 0.0098
20,GTTAATCA,0.115 ± 0.02
21,CAACGAAA,-0.0229 ± 0.071
22,ACGGGAGG,-0.113 ± 0.047
23,ATTAGGAC,-0.0886 ± 0.029
24,TCTTACAA,-0.243 ± 0.045
25,CGGCCCTA,-0.249 ± 0.019

row,Sequence,PBM E-score of 8-mer
1,GCACCAGC,0.148 ± 0.004
2,GCCGCTCA,-0.158 ± 0.064
3,GTAAACTA,-0.131 ± 0.014
4,GTGTTCCA,0.126 ± 0.038
5,CCAAGTTC,0.0302 ± 0.015
6,AAAACAAC,0.0511 ± 0.084
7,AAAATAAG,-0.136 ± 0.11
8,ATTGCTTC,-0.198 ± 0.029
9,CAGGTTGA,0.00316 ± 0.039
10,CCTCCATC,-0.0398 ± 0.06
11,CACATAGG,0.208 ± 0.011
12,GCGCCTCA,0.343 ± 0.036
13,CGAACGCA,-0.05 ± 0.079
14,AACCGGCA,0.124 ± 0.017
15,ATCGCGGC,0.159 ± 0.024
16,CCATGCAG,-0.0489 ± 0.084
17,ACATTTCT,0.114 ± 0.018
18,AGGGCAAC,-0.0859 ± 0.086
19,CACTCAAG,0.183 ± 0.024
20,CCCTTAAA,-0.0507 ± 0.076
21,CCCATATC,-0.113 ± 0.04
22,ATTTCCAG,-0.149 ± 0.11
23,GCTTCTAA,-0.158 ± 0.025
24,CGCAACAA,0.104 ± 0.036
25,ATCTTAAT,-0.171 ± 0.13

row,Sequence,PBM E-score of 8-mer
1,CTGGTTAC,-0.0261 ± 0.04
2,CAAGCGAA,-0.0138 ± 0.02
3,ATTTGGGG,-0.276 ± 0.011
4,TCGGCCCA,-0.174 ± 0.035
5,GGCTCGGA,-0.238 ± 0.014
6,CAAAGTTA,0.0481 ± 0.042
7,CCTTAGTC,-0.142 ± 0.043
8,GAGGCGAC,0.28 ± 0.012
9,AGCAACTA,0.144 ± 0.046
10,GGTAGGGA,-0.194 ± 0.048
11,AAGGCCGG,-0.215 ± 0.048
12,TCGTTACA,0.0343 ± 0.072
13,GCTTAGAA,-0.182 ± 0.096
14,AATCCATC,-0.0744 ± 0.026
15,CTGTAGCA,-0.0144 ± 0.079
16,GAGTTCCA,-0.164 ± 0.018
17,AGCGTGCC,-0.0162 ± 0.0006
18,ACTGGCTA,-0.161 ± 0.092
19,CTCAGTAC,-0.165 ± 0.026
20,CGTTTCTC,0.0182 ± 0.024
21,CGCCCCAA,0.162 ± 0.0052
22,GCTGTCCC,-0.138 ± 0.045
23,AGATAGGA,-0.189 ± 0.015
24,ACATCGAA,0.0304 ± 0.038
25,AGGAGTAG,-0.178 ± 0.042

row,Sequence,PBM E-score of 8-mer
1,AGGACCAA,-0.19 ± 0.038
2,AACTCCAA,0.116 ± 0.019
3,CCACCTAC,0.273 ± 0.049
4,CATAAAAG,-0.163 ± 0.065
5,CAACAAGA,-0.0364 ± 0.00098
6,AGAAACAC,0.212 ± 0.046
7,CCCGCTAC,-0.0172 ± 0.029
8,ACTTACAT,0.11 ± 0.039
9,AAAAGGAT,-0.0319 ± 0.081
10,GACGTCAC,0.172 ± 0.033
11,ACCATAAC,0.063 ± 0.034
12,CCTCTGTC,0.0968 ± 0.098
13,CACGTAAA,0.0269 ± 0.0072
14,AGCTGCAC,0.0946 ± 0.0038
15,GACTCCAC,-0.228 ± 0.018
16,ACTACCCT,0.09 ± 0.0018
17,ACCCTTAA,0.0468 ± 0.047
18,CTAAGAAA,-0.0612 ± 0.07
19,TCGGGCCA,-0.0825 ± 0.075
20,CCAACCAC,0.186 ± 0.012
21,AACTCACA,0.2616 ± 0.00053
22,ACTCTTTG,0.2084 ± 0.001
23,AGCGTTTG,-0.0913 ± 0.031
24,GGGCGGGA,0.00096 ± 0.04
25,CGGAGTGC,-0.00886 ± 0.079

row,Sequence,PBM E-score of 8-mer
1,ACAGGGGT,0.0127 ± 0.07
2,AGCAGCAA,-0.118 ± 0.011
3,AGGATCGC,0.0986 ± 0.03
4,CGAGTACA,-0.0995 ± 0.015
5,GCAGGCAC,0.151 ± 0.039
6,ACGACCGT,-0.135 ± 0.029
7,ACCAACAC,0.296 ± 0.0053
8,CCGTCCAA,-0.0834 ± 0.018
9,ATGAACTA,-0.0123 ± 0.0091
10,GATGGTGC,0.0957 ± 0.011
11,CCCAGCCA,-0.0582 ± 0.053
12,ATGTCTAG,0.0887 ± 0.049
13,CCTCGGTA,0.0791 ± 0.018
14,ATACGTGA,0.152 ± 0.018
15,ACCTATGC,0.157 ± 0.04
16,CGCGTTAG,0.281 ± 0.0036
17,ACGTCTTC,-0.0061 ± 0.017
18,ACCCCAGC,-0.039 ± 0.017
19,ATTACGAA,-0.246 ± 0.011
20,CCCGACAG,0.11 ± 0.0062
21,ACGCAAAC,-0.0532 ± 0.082
22,TATTTTAA,-0.0636 ± 0.061
